Source: PubChem BioAssay AID1631 (National Center for Advancing Translational Sciences (NCATS), 2009)
Among all 260,000 compounds or so, about 890 (0.34%) were called active. Inconclusive results, whose numbers are uncertain, are shown with a selection of clear calls. Calls follow the shape of the dose curve; as a rule, active = well fitted activation curve with a large enough effect; inconclusive = small, poorly fitted or top-dose-only effect; inactive = no such curve, though single readings can be large or run the other way. Potencies of inconclusive entries are left out as doubtful fits.

Molecular target: Pyruvate kinase PKM (Homo sapiens) (UniProt P14618)
UniProt P14618, sequence (P14618 whole entry, looked up, canonical isoform): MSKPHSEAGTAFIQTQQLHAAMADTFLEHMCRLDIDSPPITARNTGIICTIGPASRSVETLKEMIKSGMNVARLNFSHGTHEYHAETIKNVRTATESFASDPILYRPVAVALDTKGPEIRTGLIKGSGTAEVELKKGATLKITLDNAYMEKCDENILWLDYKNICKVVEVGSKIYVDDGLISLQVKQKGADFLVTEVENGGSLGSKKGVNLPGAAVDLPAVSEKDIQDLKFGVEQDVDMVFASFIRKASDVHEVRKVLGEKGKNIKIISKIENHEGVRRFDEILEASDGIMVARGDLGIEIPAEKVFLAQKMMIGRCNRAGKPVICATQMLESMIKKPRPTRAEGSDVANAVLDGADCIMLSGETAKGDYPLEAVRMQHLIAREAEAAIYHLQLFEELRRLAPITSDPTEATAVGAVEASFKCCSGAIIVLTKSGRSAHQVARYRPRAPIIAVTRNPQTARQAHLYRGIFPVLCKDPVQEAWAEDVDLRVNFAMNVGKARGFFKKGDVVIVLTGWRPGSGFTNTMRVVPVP
Assay: qHTS Assay for Activators of Human Muscle isoform 2 Pyruvate Kinase; also: nearly all actives have a fitted effect of over 55% in size
Details: purified PKM2, Kinase-Glo ATP luminescence; Potency: activation; series mostly up to 57.5 µM; activation: at the top concentration
Outline: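 Kinase-Glo luminescence reports ATP generated from ADP (0.1 mM) and PEP (0.5 mM) by purified hPK-M2 after 1 h at room temperature, pH 7.2 imidazole buffer; intermediate enzyme activity allows detecting inhibitors and activators.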
% is scaled to controls: 0 for no effect and ±100 for the full control effect; potency is read from the fitted curve at half-maximal effect; tags tell the direction and shape of the fitted curve.

Row | SMILES | Potency | activation
1 | Cc1ccc(/C=C2/C(=O)NC(=O)N(CC3CCCO3)C2=O)s1 (stereo not given) | inconclusive [rising, single point] | –
2 | O=CC1=C(N2CCOCC2)/C(=C\c2ccccc2)CC1 | inconclusive [rising, single point] | –
3 | Cn1cccc1/C=C1\C(=O)NC(=O)N(Cc2ccco2)C1=O | – | inactive: 17.9%
4 | COc1ccc(C(=O)C2CCCN(C3CSCCSC3)C2)cc1OC (stereo not given) | inconclusive [rising, single point] | –
5 | COc1c(C)cc(C(=O)C2CCCN(C3CCOCC3)C2)cc1C (stereo not given) | inconclusive [rising, single point] | –
6 | CC(=O)N1N=C(c2cccnc2)CC1c1ccccc1O (stereo not given) | active: 5.01 µM | –
7 | CC(Oc1ccc(-c2ccccc2)cc1)C(=O)O (stereo not given) | inconclusive [rising, single point] | –
8 | CCN(CC)c1ccc(/C=C2/C(=O)NC(=O)N(Cc3ccco3)C2=O)cc1 | inconclusive [rising, partial curve, poor fit] | –
9 | C[N+]1(C)C2CCC1CC(OC(=O)c1ccco1)C2 (stereo not given) | – | inactive: -6.16%
10 | O=C(Nc1cccnc1)C1CCN(S(=O)(=O)c2cccs2)CC1 | inconclusive [rising, single point] | –
11 | CCCCCn1c(=O)c(C(=O)NCc2ccncc2)c(O)c2ccccc21 | inconclusive [rising, full curve, poor fit] | –
12 | O=C1NC(=S)N(Cc2ccco2)C(=O)/C1=C\c1cccs1 | inconclusive [rising, single point] | –
13 | Cc1ccc(/C=C2\C(=O)NC(=S)N(c3ccccc3F)C2=O)s1 | inconclusive [rising, partial curve] | –
14 | Cc1ccc(NC(=O)CN(C)CC(=O)Nc2cccc(F)c2)cc1[N+](=O)[O-] | inconclusive [rising, partial curve] | –
15 | FCCN(CCF)c1cccc(Cl)c1 | – | inactive: -1.83%
16 | CCN1C(=O)C(=C2C=C(C)OC(C)=C2)C(=O)N(CC)C1=S | – | inactive: 7.11%
17 | O=[N+]([O-])c1cc(F)c(N2CCCC2)cc1Br | inconclusive [rising, single point] | –
18 | Cc1ccc(NC(=O)COC(=O)/C=C/c2ccco2)cc1S(=O)(=O)N(C)C | inconclusive [rising, single point] | –
19 | Nn1c(COc2ccc(Cl)cc2)n[nH]c1=S | inconclusive [rising, single point] | –
20 | CCN(CC)C(=O)c1ccc(NC(=S)NC(=O)CCc2ccccc2)cc1 | – | inactive: -5.23%
21 | Cc1ccc(/C=C2/C(=O)NC(=O)N(CCc3ccc(F)cc3)C2=O)o1 | inconclusive [rising, single point] | –
22 | Cc1ccc(P(=S)(c2ccc(C)o2)N2CCOCC2)o1 | inconclusive [rising, single point] | –
23 | O=C1NC(=O)N(c2ccc3c(c2)OCO3)C(=O)/C1=C/c1ccsc1 | – | inactive: 9.33%
24 | Cc1ccc(N2C(=O)NC(=O)/C(=C\c3cc(C)n(-c4sc5c(c4C#N)CCCC5)c3C)C2=O)cc1 | inconclusive [rising, single point] | –
25 | COc1ccc(OC)c(N=Cc2c(O)n(Cc3ccccc3)c(=S)[nH]c2=O)c1 | – | inactive: -2.77%
